# Laboratory results taken from publication PMC4336329 (PLoS ONE, 2015).
# In all, about 310,000 compounds went through this assay and about 2,200 (0.71%) showed an effect of 50% or more. The effect is printed as a negative number. Some of the results follow.
# Target: human ether-à-go-go-related gene (hERG) potassium channel (human, UniProt Q12809)
# Assay: primary screen, population patch clamp on CHO cells stably expressing hERG
# Chain of human ether-à-go-go-related gene (hERG) potassium channel (Q12809 whole entry, looked up): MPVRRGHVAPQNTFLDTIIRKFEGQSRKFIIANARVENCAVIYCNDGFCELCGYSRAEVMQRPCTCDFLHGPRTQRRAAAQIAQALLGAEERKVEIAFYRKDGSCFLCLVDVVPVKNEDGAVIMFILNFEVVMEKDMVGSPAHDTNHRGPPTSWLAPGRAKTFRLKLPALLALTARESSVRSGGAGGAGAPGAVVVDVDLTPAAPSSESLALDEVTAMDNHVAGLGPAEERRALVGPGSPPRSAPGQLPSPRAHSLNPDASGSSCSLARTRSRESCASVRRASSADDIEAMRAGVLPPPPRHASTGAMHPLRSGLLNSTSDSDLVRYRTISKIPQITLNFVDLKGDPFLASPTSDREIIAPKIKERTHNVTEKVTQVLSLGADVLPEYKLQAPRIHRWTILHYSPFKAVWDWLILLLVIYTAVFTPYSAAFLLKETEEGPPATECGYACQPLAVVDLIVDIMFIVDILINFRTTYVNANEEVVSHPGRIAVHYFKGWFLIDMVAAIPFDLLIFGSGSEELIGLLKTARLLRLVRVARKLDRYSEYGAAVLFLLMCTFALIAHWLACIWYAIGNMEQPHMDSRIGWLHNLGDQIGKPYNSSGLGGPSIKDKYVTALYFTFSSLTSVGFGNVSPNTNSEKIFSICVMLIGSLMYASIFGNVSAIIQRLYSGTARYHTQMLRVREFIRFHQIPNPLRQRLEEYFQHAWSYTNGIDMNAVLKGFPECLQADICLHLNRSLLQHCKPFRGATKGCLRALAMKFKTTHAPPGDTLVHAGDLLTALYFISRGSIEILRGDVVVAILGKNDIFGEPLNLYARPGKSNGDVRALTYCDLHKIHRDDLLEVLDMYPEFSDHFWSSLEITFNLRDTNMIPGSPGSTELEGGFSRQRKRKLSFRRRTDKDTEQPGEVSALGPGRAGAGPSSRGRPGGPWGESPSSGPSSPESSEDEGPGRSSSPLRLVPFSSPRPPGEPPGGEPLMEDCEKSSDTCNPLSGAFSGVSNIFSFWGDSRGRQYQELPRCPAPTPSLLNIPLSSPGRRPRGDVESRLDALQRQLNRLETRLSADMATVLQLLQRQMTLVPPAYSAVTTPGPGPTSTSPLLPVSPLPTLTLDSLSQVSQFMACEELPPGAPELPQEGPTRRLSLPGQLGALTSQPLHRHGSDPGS
row,SMILES,"hERG current change (%, negative = inhibition) at 1uM [%]"
1,Cc1cc(N(CC(=O)NC2CC2)S(C)(=O)=O)ccc1Br,12.5
2,CC1CCN(C(=O)CC2C(=O)Nc3c2c(=O)n(C)c(=O)n3Cc2ccccc2)CC1 (stereo not drawn),5.67
3,CCCCn1c(N)c(N(CCC(C)C)C(=O)C2CCCN(C(=O)c3ccc(Cl)cc3)C2)c(=O)[nH]c1=O (stereo not drawn),7.62
4,CCOC(=O)C1CCCN(C(=O)c2ccc(Cl)c(S(=O)(=O)N3CCCCCC3)c2)C1 (stereo not drawn),-27.5
5,C[C@@H](C(=O)Nc1ccc2ccccc2c1)[C@@H]1C[C@@]1(C)[C@@H](NC(=O)c1ccccc1)c1ccccc1,-5.33
6,COc1ccc(CCn2c([O-])cc3nn(-c4nc5ccccc5s4)c(=O)c-3c2C)cc1,12
7,COc1cccc(C(=O)Oc2ccc(/C=N/Nc3ccc(C(=O)O)cc3)cc2OC)c1,11.8
8,CCCC(=O)Nc1ccc(N2CCCCC2)cc1,3.34
9,O=C(Nc1ccc(O)cc1)C1CCCN1S(=O)(=O)c1ccc(F)cc1 (stereo not drawn),6.47
10,COc1ccc(NC(=O)c2ccc(CNc3c(NC4CCCCC4)c(=O)c3=O)cc2)cc1OC,-8.27
11,O=C(Cc1cccs1)N1CCN=C1SCc1ccc(Br)cc1,6.45
12,O=C(CCCN1C(=O)c2cccc3cccc(c23)C1=O)N1CCN(c2ccccn2)CC1,-3.45
13,CCc1cc2c(=O)c(-c3nc4ccccc4n3C)c(COCC(=O)O)oc2cc1O,11.9
14,O=C(COc1ccc(C2SCCS2)cc1)Nc1ccc(Cl)cc1,0.735
15,CC(=O)NN1C(=O)c2ccc(Oc3cccc([N+](=O)[O-])c3)cc2C1=O,-2.94
16,CCN(CC)S(=O)(=O)c1ccc(N(C)C)c(NC(=O)C2CCCC2)c1,2.32
17,CSCC[C@H](NC(=O)OC(C)(C)C)c1nnc(SCC=C(C)C)o1,2.36
18,CCN1CCC2(CC1)N=C(c1ccc(F)cc1)C(=S)N2C(=O)c1ccc(C(C)(C)C)cc1,4.27
19,COc1ccc(CCNC(=O)c2ccc3c(c2)OCO3)cc1,11.4
20,O=C(O)c1ccccc1Nc1ccc([N+](=O)[O-])c2nonc12,-2.95
21,O=C1c2ccccc2C(=O)C1(CO)c1ccc(OC(F)F)cc1,14.7

row,SMILES,"hERG current change (%, negative = inhibition) at 1uM [%]"
1,COCCNC(=O)C(c1ccc(F)cc1)N(C(=O)CCC(=O)Nc1ccccn1)C1CCCCC1 (stereo not drawn),18.5
2,CCCc1cc2c(=O)c(-c3cscn3)c(C(=O)OCC)oc2cc1O,8.99
3,COc1ccccc1C(=O)N(Cc1ccco1)C1CCS(=O)(=O)C1 (stereo not drawn),5.68
4,O=C(Cc1ccccc1)N(c1ccc(F)cc1)C1C=CS(=O)(=O)C1 (stereo not drawn),2.58
5,COc1cc2c(cc1OC)CN(C(=O)CSc1nc(C)cc(C)c1C#N)CC2,3.66
6,COc1ccc(N=CC2=C(Nc3ccc(OC)cc3)c3c(C)nn(-c4ccccn4)c3CC2)cc1,0.785
7,COc1ccc(NC(=O)C2CCCN(S(=O)(=O)c3cccnc3)C2)c(OC)c1 (stereo not drawn),3.84
8,C#CCOc1ccccc1CNC1CCN(Cc2ccccc2)CC1.O=C(O)C(=O)O,9.36
9,Cc1cc(C(=O)OCc2nnc(-c3ccccc3)o2)c(C)n1-c1ccccc1,-18.8
10,Cc1ccccc1CNS(=O)(=O)c1ccccc1[N+](=O)[O-],2.13
11,COc1cccc(NC(=O)c2sc3ncn(CC(=O)N4CCN(c5ccccn5)CC4)c(=O)c3c2C)c1,3.32
12,Cc1ccc(S(=O)(=O)N(CC(O)CN(C)C)c2ccccc2)cc1.Cl (stereo not drawn),-43.8
13,CCC1CCC/C1=N\NC(=O)c1ccoc1C (stereo not drawn),23.8
14,O=C(NCc1c(Cl)cccc1Oc1ccccc1)c1ccccc1,16
15,Cc1nc(S/C(=C/c2ccc(-c3ccc(Cl)cc3)o2)C(=O)O)n[nH]1,13.9
16,COc1ccc(Cl)cc1NC(=O)CCS(=O)(=O)c1ccc(Br)cc1,11.3
17,Cc1ccc(S(=O)(=O)N2CCN(C(=S)NCC3CCCO3)CC2)cc1 (stereo not drawn),-0.199
18,O=C(CSc1ccc(-c2ccc(F)cc2)nn1)NCCc1ccccc1,11.7
19,O=C(O)CCNC(=O)/C(=C/c1ccco1)NC(=O)c1ccco1,19.5
20,COC/C=C/C1=CC2=CC(=O)C(C)(OC(=O)c3cnc4ccccc4n3)C(=O)C2=CN1Cc1ccco1 (stereo not drawn),11.5
21,O=C(c1cccs1)N1CCN(S(=O)(=O)Cc2ccccc2)CC1,4.98
